# ± gives the standard deviation of the averaged measurements. The full ranking holds about 33,000 sequences; the median of “E-score (dimensionless, -0.5 to 0.5)” is about -0.049, and the highest 2% start at about 0.37. Some of the results follow.
# Tested on: T1, PmTbr T-box DNA-binding domain (GST fusion)
# T1 sequence: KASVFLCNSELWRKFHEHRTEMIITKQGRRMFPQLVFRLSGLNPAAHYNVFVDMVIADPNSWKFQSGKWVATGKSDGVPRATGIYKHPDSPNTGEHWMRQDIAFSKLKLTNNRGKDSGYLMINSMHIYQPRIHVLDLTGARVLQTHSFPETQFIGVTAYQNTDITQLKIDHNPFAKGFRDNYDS
# Assay: PBM E-score of 8-mer (E-score (dimensionless, -0.5 to 0.5)); Tbr is Tbrain of the sea star Patiria miniata (Pm) or the sea urchin Strongylocentrotus purpuratus (Sp); higher = stronger binding preference; most listed sequences are background and not binding sites
# Conditions: the construct has about 5 more residues each side
# Method: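 Universal protein-binding microarray (Agilent AMADID 016060, 60-bp probes with a 35-bp variable region) incubated with 200 nM GST-fused Patiria miniata Tbr T-box DNA-binding domain (residues 272-466) in PBS pH 7.5. Scored for every ungapped 8-mer (given with its reverse complement) by the Universal PBM Analysis Suite as E-score (modified Wilcoxon-Mann-Whitney enrichment, range -0.5 to 0.5; >0.45 counts as bound) and Z-score of median probe intensity. Two replicate arrays (datasets 1 and 2).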
# 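Further: 200 nM protein in PBS on universal arrays averaged over duplicate arrays.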
row,Sequence,PBM E-score of 8-mer
1,ATCGCAAG,0.18 ± 0.019
2,AACGACCT,-0.0518 ± 0.053
3,CTGTGTGA,0.298 ± 0.018
4,CATTGCGG,-0.0397 ± 0.028
5,GCGTGTGA,0.373 ± 0.016
6,TTCATGAA,-0.283 ± 0.076
7,CAGCGCGA,0.203 ± 0.029
8,CGCTACCG,0.138 ± 0.029
9,GGTCTCTA,-0.125 ± 0.011
10,AGCATAGC,-0.0299 ± 0.035
11,GGAGTAAC,-0.0933 ± 0.0021
12,AGCGATCA,0.0219 ± 0.084
13,GCATCCCA,-0.107 ± 0.015
14,GGTTGGTA,-0.0707 ± 0.01
15,AAAGCAGG,0.0888 ± 0.091
16,TGCCGGCA,-0.0434 ± 0.088
17,CATGGGGG,-0.277 ± 0.059
18,GCCCCGAA,-0.261 ± 0.038
19,CAGCTCTA,0.0297 ± 0.05
20,CTATGATA,-0.155 ± 0.024
21,AAGTTCCG,-0.0839 ± 0.022
22,GTGCAGGA,-0.066 ± 0.036
23,AAACGGGA,-0.228 ± 0.025
24,AAAAATCG,0.162 ± 0.073
25,AAGCTCCT,-0.239 ± 0.011

row,Sequence,PBM E-score of 8-mer
1,ACTTCTTA,-0.00926 ± 0.062
2,TACTGAGA,-0.28 ± 0.051
3,CTTGTGGC,0.0498 ± 0.0044
4,ATTATAAT,0.048 ± 0.097
5,CACTTAAC,0.304 ± 0.004
6,GTACGTTA,-0.0122 ± 0.038
7,ACCTCCGT,0.3 ± 0.02
8,CACGGCAC,0.185 ± 0.014
9,GGGTCTTA,-0.271 ± 0.011
10,ACAATCAG,-0.077 ± 0.011
11,ACGCCAGT,0.109 ± 0.02
12,ACCAACTC,-0.0968 ± 0.014
13,CCAGAAAC,-0.0362 ± 0.0098
14,CTTATACC,-0.173 ± 0.13
15,AGTCTAAA,-0.206 ± 0.045
16,CTTCCGAC,-0.0114 ± 0.006
17,GGGGCCCC,-0.373 ± 0.0082
18,GTTTCGTA,0.0798 ± 0.01
19,AAGTTGCA,0.0571 ± 0.086
20,AAGCGGCA,-0.101 ± 0.081
21,GAAGCAAA,-0.258 ± 0.058
22,AGTACGAT,-0.238 ± 0.038
23,CGGGGCGA,0.0995 ± 0.023
24,AACCCAAG,-0.126 ± 0.0083
25,CAGTAGGC,0.00485 ± 0.0087

row,Sequence,PBM E-score of 8-mer
1,TGTACGAA,-0.0368 ± 0.13
2,CCGCGCGA,0.226 ± 0.0095
3,GTTATATA,-0.0715 ± 0.037
4,CTCGAGAC,-0.0526 ± 0.004
5,ATCAACTC,0.0652 ± 0.025
6,CTATCGGC,0.0342 ± 0.0053
7,CGTTGTGC,0.11 ± 0.063
8,AAGGCGAC,0.245 ± 0.024
9,ACGGCAGT,-0.121 ± 0.086
10,CACACTCG,0.408 ± 0.011
11,CAGCTGAC,0.0103 ± 0.008
12,CACGTCGC,0.268 ± 0.018
13,GCAGGAGC,-0.124 ± 0.0015
14,ATCCACAA,-0.0348 ± 0.017
15,GAGATATA,-0.145 ± 0.0055
16,ATTCCTTC,-0.15 ± 0.1
17,AGTTGTGA,0.387 ± 0.017
18,AATACGGC,-0.0428 ± 0.11
19,ACGAATAC,-0.0576 ± 0.036
20,GGAAACAA,-0.209 ± 0.019
21,CCAAACAA,-0.0329 ± 0.0076
22,ACACCATG,0.36 ± 0.025
23,CCTTGTAA,-0.0975 ± 0.037
24,CCGCCCGC,-0.0385 ± 0.058
25,ATTATTGC,-0.118 ± 0.055

row,Sequence,PBM E-score of 8-mer
1,GATCAGAC,-0.23 ± 0.019
2,AAGCCTCG,-0.0234 ± 0.039
3,TAGATTAA,-0.0736 ± 0.046
4,CCCGGCTC,-0.29 ± 0.022
5,CCTTCGAA,0.0378 ± 0.023
6,CGAGCGTC,-0.138 ± 0.023
7,AGACTCTA,-0.267 ± 0.08
8,CCCCTGTA,-0.0841 ± 0.033
9,AACAATCC,-0.0388 ± 0.023
10,CAATCAAA,-0.0855 ± 0.024
11,ACACTAAT,0.162 ± 0.018
12,CGGCTGTC,0.0205 ± 0.07
13,ATGGATTA,-0.273 ± 0.04
14,ACATGGCT,-0.062 ± 0.043
15,AGTTGGTG,0.148 ± 0.0097
16,CCTCATAA,-0.0348 ± 0.046
17,ACAACCAC,0.127 ± 0.018
18,CCACCGGA,-0.209 ± 0.0098
19,GCGGCGAC,0.0452 ± 0.07
20,ATCATTGC,-0.15648 ± 4.9e-05
21,TGATACCA,-0.0231 ± 0.066
22,AGACAAGC,-0.0272 ± 0.021
23,CTTCGGAC,-0.095 ± 0.064
24,AAACGCTC,-0.231 ± 0.022
25,CGTAGCAC,0.25 ± 0.0023

row,Sequence,PBM E-score of 8-mer
1,AATTGGGT,0.0285 ± 0.094
2,GAGAGATC,-0.0303 ± 0.039
3,TCGATGCA,-0.281 ± 0.051
4,AAATCGAC,0.0677 ± 0.0049
5,ATCGCCCA,-0.0928 ± 0.011
6,CTGACGTC,-0.144 ± 0.03
7,AGCCGGCG,-0.0345 ± 0.04
8,TCCGTAAA,0.0342 ± 0.0079
9,GTAGAGCA,-0.196 ± 0.024
10,ACACGACA,0.198 ± 0.038
11,ACAACGAT,-0.0105 ± 0.005
12,CCCTCGGA,-0.2767 ± 0.0014
13,CAGGCCGA,-0.0705 ± 0.045
14,CTTCTCAC,0.365 ± 0.01
15,CGACCCAG,-0.174 ± 0.039
16,TCTGACCA,-0.269 ± 0.0061
17,CCTCGCAC,0.42 ± 0.014
18,ACTCTGGG,-0.116 ± 0.055
19,AGCGCTCG,0.101 ± 0.095
20,CAAGCTGA,-0.156 ± 0.077
21,CTTCCTTA,-0.0298 ± 0.074
22,CCCTGTGC,-0.158 ± 0.024
23,GATGTTGA,-0.0175 ± 0.0044
24,ACCCTACT,0.129 ± 0.007
25,AAGGGGCA,-0.322 ± 0.081

row,Sequence,PBM E-score of 8-mer
1,GGGGTTTA,-0.00492 ± 1.4e-05
2,CAGTTGCC,0.132 ± 0.036
3,ATTATGGA,-0.148 ± 0.028
4,AAATGGGT,0.0414 ± 0.067
5,CTGATCTC,-0.059 ± 0.072
6,CAAATCTC,0.0834 ± 0.033
7,GCACAACC,-0.0181 ± 0.11
8,AGTTTCGG,-0.308 ± 0.0087
9,GAAACGCC,0.103 ± 0.043
10,TGCAGCAA,-0.055 ± 0.007
11,GAGGCATC,-0.228 ± 0.033
12,AGACAGGA,-0.136 ± 0.049
13,CCGGGGGA,-0.172 ± 0.081
14,ATGCAATG,-0.127 ± 0.0054
15,ATCGCTGC,0.0307 ± 0.026
16,CTTAAGAA,-0.0586 ± 0.033
17,AAACGGAC,-0.153 ± 0.016
18,GAGCCTGC,-0.07 ± 0.07
19,CATTATAC,0.056 ± 0.021
20,CTCATTCA,0.122 ± 0.048
21,GCGTTGGA,0.0932 ± 0.0039
22,ATGAGCCC,-0.244 ± 0.043
23,CCAGCCTC,-0.285 ± 0.046
24,TAAAGCCA,-0.299 ± 0.063
25,TCATGTCA,-0.0115 ± 0.029

row,Sequence,PBM E-score of 8-mer
1,CCAAGTCC,-0.109 ± 0.013
2,AAGGCGCC,0.235 ± 0.031
3,CTGGGATC,-0.0985 ± 0.035
4,GCCCGGAA,-0.0658 ± 0.049
5,CAGAATAG,-0.127 ± 0.045
6,ACGTCCTG,0.0715 ± 0.061
7,ACAAGGCT,0.061 ± 0.047
8,CTAACATC,-0.1377 ± 0.00032
9,TACTCCGA,-0.099 ± 0.054
10,CCACCGCG,0.0653 ± 0.048
11,TACGTCGA,-0.0605 ± 0.057
12,CCAGTGAG,-0.186 ± 0.03
13,CCTGTCCA,0.0333 ± 0.078
14,AATCGTCC,-0.25 ± 0.036
15,CGATGCCC,-0.152 ± 0.027
16,ATTGGAGA,-0.252 ± 0.013
17,CGGTGCGA,0.35 ± 0.017
18,AATTGGAA,-0.0872 ± 0.056
19,CCAGACGG,-0.195 ± 0.04
20,ACAACTCA,0.185 ± 0.039
21,AATTCGAT,-0.0134 ± 0.093
22,GTACTCAA,-0.139 ± 0.016

# From the supplement of paper PMC4166925
